# From PubChem BioAssay AID588342 (National Center for Advancing Translational Sciences (NCATS), 2011)
# Hit rate of the full screen: of about 360,000 compounds, about 25,000 (6.9%) were called active. The inconclusive results got no clear call from the source; some entries with a clear call stand among them for comparison. The call rests on the fitted dose curve; in most records, active means well fitted inhibition curve with a large enough effect; inconclusive means small, poorly fitted or top-dose-only effect; inactive means flat fitted curve, though single readings scatter. A potency beside an inconclusive call is a rough fit, not a confirmed value.
# Biological target: Luciferin 4-monooxygenase (Photinus pyralis) (UniProt P08659)
# Experiment: qHTS profiling assay for firefly luciferase inhibitor/activator using purifed enzyme and Km concentrations of substrates (counterscreen for miR-21 project); further: nearly all actives have a fitted effect of over 55% in size
# Settings: purified FLuc, luminescence inhibition; series mostly up to 57.5 µM
# How it was run: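 Biochemical qHTS of compounds, final roughly 60 µM downward over six points, against 10 nM purified firefly luciferase using Km concentrations of substrates (10 uM D-luciferin, 10 uM ATP) in Tris acetate pH 7.5 buffer; luminescence output.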
# Potency means the concentration at half of the fitted maximal effect; tags describe the fitted curve by direction and shape.
# UniProt P08659, sequence (P08659 whole entry, looked up): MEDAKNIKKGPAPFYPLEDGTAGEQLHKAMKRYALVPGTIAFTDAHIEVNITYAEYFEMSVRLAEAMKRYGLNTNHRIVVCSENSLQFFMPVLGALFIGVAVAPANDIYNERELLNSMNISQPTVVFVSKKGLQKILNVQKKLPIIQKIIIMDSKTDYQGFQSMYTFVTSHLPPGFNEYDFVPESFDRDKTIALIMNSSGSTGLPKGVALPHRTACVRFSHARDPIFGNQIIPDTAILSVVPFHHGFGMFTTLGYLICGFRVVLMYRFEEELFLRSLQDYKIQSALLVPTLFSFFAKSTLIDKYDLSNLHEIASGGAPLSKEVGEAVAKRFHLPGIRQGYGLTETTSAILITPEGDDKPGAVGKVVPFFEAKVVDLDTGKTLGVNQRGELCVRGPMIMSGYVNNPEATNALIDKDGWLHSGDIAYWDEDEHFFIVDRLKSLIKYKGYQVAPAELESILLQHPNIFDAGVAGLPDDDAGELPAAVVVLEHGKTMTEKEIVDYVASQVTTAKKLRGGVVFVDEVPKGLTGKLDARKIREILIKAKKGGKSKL
row,Compound,Potency
1,Cc1ccc(-c2cc(C(=O)N/N=C/c3ccc(Cl)cc3)n[nH]2)o1,"inconclusive: 33.8 µM [inhibitor, partial curve, poor fit]"
2,COc1ccccc1OCCCOc1c(Cl)cc(C)cc1Cl,"inconclusive: 13.5 µM [inhibitor, partial curve, poor fit]"
3,CCn1c(=S)[nH]c2sc3c(c2c1=O)CCCC3,"inconclusive: 37.9 µM [inhibitor, single point]"
4,Cc1ccc(N2CC(C(=O)Nc3ccc(S(=O)(=O)Nc4nccs4)cc3)CC2=O)cc1 (stereo not given),"inconclusive: 37.9 µM [inhibitor, partial curve, poor fit]"
5,CCCc1nc2ccccc2n1Cc1ccccc1OC,"inconclusive: 37.9 µM [inhibitor, partial curve, poor fit]"
6,Cc1ccc(Nc2nc(=O)c3cccnc3s2)c(Br)c1,"inconclusive: 37.9 µM [inhibitor, partial curve, poor fit]"
7,CC(=O)c1ccc(OC(=O)c2ccc(Br)o2)cc1,"inconclusive: 4.78 µM [inhibitor, full curve]"
8,COc1cc(C(=O)NC(=S)Nc2ccc3[nH]c(=O)[nH]c3c2)cc(OC)c1OC,inactive
9,O=C(Nc1ccc2c(c1)OCO2)N1CCCc2ccccc21,"inconclusive: 26.9 µM [inhibitor, partial curve]"
10,O=C(OCc1nnc(-c2ccccc2)o1)c1ccc2c(c1)OCCO2,"inconclusive: 19 µM [inhibitor, partial curve]"
11,Cc1cccc(C)c1NC(=O)CSc1nc2[nH]c(=O)cc(O)c2s1,inactive
12,Clc1ccc(OCc2nc3ccccc3n2Cc2ccccc2)c(Cl)c1,active: 6.01 µM
13,O=C(O)C/C=C(\NC(=O)OCc1ccccc1)C(=O)OCc1ccccc1,"inconclusive: 13.5 µM [inhibitor, partial curve, poor fit]"
14,COc1ccc(OC)c(C2C(C(=O)N3CCCCC3)=C(C)Nc3nc4ccccc4n32)c1 (stereo not given),inactive
15,COc1ccccc1N=c1oc2c(OC)cccc2cc1C(=O)NCc1ccco1,"inconclusive: 37.9 µM [inhibitor, partial curve, poor fit]"
16,COC(=O)c1ccc(Cl)c(NC(=O)CN2CCC(C)CC2)c1,"inconclusive: 26.9 µM [inhibitor, partial curve, poor fit]"
17,CC(C)(C)c1ccc(C(=O)NCC2CCCN2S(=O)(=O)c2ccccc2)cc1 (stereo not given),"inconclusive: 15.1 µM [inhibitor, partial curve, poor fit]"
18,Cc1csc2c(=O)sc(NC(=O)c3ccco3)nc12,"inconclusive: 30.1 µM [inhibitor, partial curve, poor fit]"
19,COc1cc(NC(=O)N2CCC3(CC2)Nc2cc(F)ccc2-n2cccc23)cc(OC)c1OC,"inconclusive: 37.9 µM [inhibitor, partial curve, poor fit]"
20,O=C(Nc1ccc(N2CCOCC2)c(Cl)c1)c1ncn[nH]1,active: 21.3 µM
21,O=C(NNC(=O)c1ccccc1F)c1cccc(-n2cccc2)c1,"inconclusive: 23.9 µM [inhibitor, single point]"
22,COc1cc(CCN2C(=O)c3cccc4cccc(c34)C2=O)c(S(=O)(=O)NCCCO)cc1OC,active: 21.3 µM
23,COc1ccc(CNC(=O)CCn2nc(C)c3c(C)n(-c4ccccc4)nc3c2=O)c(OC)c1,inactive
24,Clc1ccc(-c2nnc(-c3ccccc3Cl)o2)cc1,active: 1.2 µM

row,Compound,Potency
1,O=C(/C=C/c1ccc(Cl)cc1Cl)N1CCc2ccccc21,active: 0.601 µM
2,Cc1cccnc1NC(=S)NC(=O)c1cncc(Br)c1,"inconclusive: 23.9 µM [inhibitor, partial curve, poor fit]"
3,COC(=O)CSc1[nH]c2cc(C)ccc2c1[N+](=O)[O-],"inconclusive: 30.1 µM [inhibitor, partial curve, poor fit]"
4,O=C(C[n+]1cccc(O)c1)Nc1ccc(Br)cc1,"inconclusive: 15.1 µM [inhibitor, partial curve, poor fit]"
5,CC(C)(C)C(=O)Nc1ccc(-c2csnn2)cc1,active: 23.9 µM
6,COc1ccc(/C=N/NC(=O)c2cccnc2)cc1CSc1nc2ccccc2s1,"inconclusive: 26.9 µM [inhibitor, single point]"
7,CC(C)(C)c1ccc(C(=O)Nc2ccc(C(=O)N3CCOCC3)cc2)cc1,"inconclusive: 13.5 µM [inhibitor, partial curve]"
8,C(=C\c1ccc(/C=C/c2ccccc2)nn1)/c1ccccc1,"inconclusive: 37.9 µM [inhibitor, partial curve, poor fit]"
9,COc1ccc(NC(=O)C2CCCN(S(=O)(=O)c3cccnc3)C2)cc1 (stereo not given),inactive
10,CCc1nnc(NC(=O)c2cc(-c3ccco3)nc3ccccc23)s1,"inconclusive: 26.9 µM [inhibitor, partial curve]"
11,Cc1cc(C(=O)N/N=C/c2cccs2)no1,"inconclusive: 37.9 µM [inhibitor, single point]"
12,CCc1cccc(NC(=O)c2ccc3c(=O)n4c(nc3c2)CCCCC4)c1,active: 13.5 µM
13,Cc1cc(Cl)cc2c(N=Nc3ccccc3C(=O)O)c(O)[nH]c12,active: 12 µM
14,O=C(C[n+]1cn(C(F)F)c2ccccc21)c1ccc(Br)cc1,"inconclusive: 23.9 µM [inhibitor, partial curve]"
15,COc1cc(/C=N/Nc2nc(=O)[nH]nc2C)cc(OC)c1O,"inconclusive: 23.9 µM [inhibitor, single point]"
16,Cc1ccc(/C=c2/sc3n(c2=O)CCCN=3)o1,active: 15.1 µM
17,O=C(Nc1nc(-c2ccc(F)cc2)cs1)c1cccc(N2C(=O)CCC2=O)c1,"inconclusive: 16.9 µM [inhibitor, partial curve]"
18,CCNc1ccc(Br)cc(C(=O)/C=C/c2ccc3c(c2)OCO3)c1=O,"inconclusive: 21.3 µM [inhibitor, single point]"
19,Cc1cc(=O)oc2cc(NC(=O)c3cc4ccccc4o3)ccc12,inactive
20,CCCCCOC(=O)Cn1c(=O)oc2ccc(C)cc21,"inconclusive: 16.9 µM [inhibitor, partial curve, poor fit]"
21,COC(=O)N/N=C(\C)c1ccc(C)c([N+](=O)[O-])c1,"inconclusive: 37.9 µM [inhibitor, single point]"
22,CC(C)[C@H](NC(=O)c1ccco1)C(=O)NC12CC3CC(CC(C3)C1)C2,inactive
23,COc1ccc(-n2c(Cc3cccn3C)nnc2SCC(=O)Nc2cccc(Cl)c2)cc1,inactive
24,COc1ccc(-c2nc(C#N)c(N3CCC(C)CC3)o2)cc1,"inconclusive: 21.3 µM [inhibitor, partial curve]"

row,Compound,Potency
1,CCc1ccc(NC(=S)Nc2cccc(OC)c2)cc1,active: 21.3 µM
2,CCN(C(=O)COC(=O)c1cc(-c2cccs2)nc2ccccc12)C1CCS(=O)(=O)C1 (stereo not given),"inconclusive: 26.9 µM [inhibitor, partial curve, poor fit]"
3,COc1ccc(Cl)cc1NC(=O)Cn1nc(Cc2ccncc2)c2ccccc2c1=O,inactive
4,CC1(C)Cc2nc3sc4c(=O)n(CC(=O)NCc5ccco5)cnc4c3cc2CO1,"inconclusive: 16.9 µM [inhibitor, partial curve]"
5,CCn1c(SCC(=O)N/N=C/c2ccc(OC)c(OC)c2)nc2ccccc21,active: 16.9 µM
6,O=C(N/N=C/c1ccc[nH]1)c1cc(-c2ccc(Cl)cc2)nc2ccccc12,active: 12 µM
7,COc1ccccc1NC(=O)N1CCC(CN2CCc3ccccc3C2)CC1,inactive
8,CCc1ccccc1NC(=O)C1CCN(C(=O)N2CC(C)Oc3ccc(Cl)cc32)CC1 (stereo not given),inactive
9,Nc1nc2ccccc2n1/N=C/c1ccc(Br)cc1,"inconclusive: 6.75 µM [inhibitor, full curve]"
10,COc1ccccc1NC(=O)CSc1nc(O)c(C/C=C/c2ccccc2)c(=O)[nH]1,"inconclusive: 10.7 µM [inhibitor, partial curve]"
11,CCc1nnc(NC(=O)CSc2nccn2Cc2ccc(C)cc2)s1,"inconclusive: 21.3 µM [inhibitor, partial curve, poor fit]"
12,CCCC(=O)Oc1ccc(-c2nccc(C(OC)OC)n2)cc1,active: 13.5 µM
13,COc1ccc(NC(=O)c2cccs2)cc1OC,"inconclusive: 23.9 µM [inhibitor, partial curve]"
14,CC1(C)CC(N2CCCC2)=CC(=[N+]2CCCCCC2)C1,inactive
15,CCc1ccccc1NC(=O)c1cnn(-c2ccccc2)c1C,"inconclusive: 19 µM [inhibitor, partial curve]"
16,COc1cccc(CNC(=O)c2cccnc2Sc2ccccc2)c1,"inconclusive: 37.9 µM [inhibitor, single point]"
17,O=C(O)CCC(=O)Nc1ccc2c(c1)oc1ccccc12,active: 23.9 µM
18,Cc1ccccc1NC(=O)c1ccc(S(=O)(=O)C(F)F)cc1,"inconclusive: 37.9 µM [inhibitor, partial curve, poor fit]"
19,Cc1cc(N2CCN(C)CC2)nc2ccc(NC(=O)c3ccc(C(C)(C)C)cc3)cc12,"inconclusive: 13.5 µM [inhibitor, partial curve]"
20,NC(=O)N/N=C/c1sc(=O)n(-c2ccccc2)c1Cl,"inconclusive: 21.3 µM [inhibitor, single point]"
21,O=C(COC(=O)C(Cc1ccccc1)NC(=O)c1ccccc1)c1ccccc1 (stereo not given),"inconclusive: 19 µM [inhibitor, partial curve]"
22,O=C(N/N=C/c1ccc[nH]1)c1ccc(Cl)cc1,active: 10.7 µM
